The record followed here is publication PMC10668032.

The other results are listed elsewhere or left out. At the low end of the ranking the order means little.

For the test, the target named is SIX1-Q177R homeodomain (UniProt Q15475). In words: universal protein binding microarray. As to conditions: Universal all-10-mer PBM (8x60K, AMADID 030236), 300 nM GST-tagged protein, Alexa Fluor 488 anti-GST; buffer, salt, pH and temperature not stated; high values mean tight binding; most listed sequences are background and not binding sites; double strand, one strand shown.
Regarding CGGAGACG, the binding signal came to 0.138 E-score.
The result for CTTACTGC reads -0.167 E-score.
For ACCAGACA the value was 0.234 E-score.
For TGTGGAAA the value was -0.0857 E-score; for AAGTACTT, -0.219 E-score; for GATGGATA, -0.0006 E-score.
On to GCCAGGTA, for which the binding signal is -0.0382 E-score.
For CTCTCCAG, the binding signal is -0.113 E-score.
The result for ACGGACCA reads -0.155 E-score; that for ACACTGAA, 0.349 E-score; that for ATACGGCG, -0.0354 E-score.
For AGAGCGGG the value was -0.0404 E-score; for TAGAAATA, -0.174 E-score.
The result for CGGTATTC reads 0.0602 E-score.
For GGACTGAC, the binding signal is -0.127 E-score.
Consider AGAGTGGA, for which the binding signal stood at 0.0849 E-score.
For TACGGGAA the value was 0.0745 E-score; for TACGGTAA, -0.12 E-score; for AACCAGCA, -0.0764 E-score.
The result for CACGACTG reads 0.19 E-score.
In the case of GCCCTTGA, the binding signal is -0.0537 E-score.
The result for CATCGCAG reads -0.0432 E-score; that for CCGTGCCC, 0.123 E-score; that for CGCTGTCA, -0.235 E-score.
For AATATACC the value was -0.0841 E-score; for CGTACCCA, 0.0716 E-score; for GATGGGGA, 0.0927 E-score.
The result for CAACCTCA reads 0.0213 E-score; that for CAGGCATA, -0.117 E-score.
On to AATTTAGT, for which the binding signal was -0.0564 E-score.
For CTGATAAA the value was -0.0381 E-score; for CGCCGGAA, -0.197 E-score; for ATTCGTAC, -0.0214 E-score.
For CTTCATCC the value was -0.254 E-score; for ACTCGTCG, -0.0565 E-score.
The result for GTAAACTA reads -0.0676 E-score; that for AGTAACAC, 0.424 E-score.
Consider TACGCACA, for which the binding signal was -0.124 E-score.
The result for GGCATCTA reads -0.115 E-score; that for GGCGCTTA, -0.123 E-score; that for AGTTGTGC, 0.0318 E-score.
For AGCCAAAA the value was -0.211 E-score; for CTGCTGCA, 0.0441 E-score.
The result for CAATGCGC reads -0.0954 E-score; that for GTTAAAAA, -0.0664 E-score.
As to CAGTCACG, the binding signal was -0.0985 E-score.
For AAGTAGCC, the binding signal is -0.273 E-score.
On to TCAACTCA, for which the binding signal is -0.257 E-score.
The result for CTTTTACA reads 0.17 E-score.
The result for ATTAGGTC reads -0.286 E-score.
The result for GCTGCCCA reads -0.0261 E-score; that for AGAAAGGC, -0.321 E-score.
With AGCCGATC, the binding signal turned out to be 0.024 E-score.
As for AATACTAG, the binding signal is -0.0474 E-score.
On to CCACCCTC, for which the binding signal amounted to 0.128 E-score.
The result for AGGGCGGC reads -0.165 E-score; that for ACGAGTCC, -0.0848 E-score; that for CATGGCAA, -0.336 E-score.
The result for ATCAGAAA reads -0.0539 E-score.
Turning to TATACCGA, the binding signal is -0.044 E-score.
For the sequence AACCAAGC, the binding signal was -0.185 E-score.
The result for CATTAACC reads 0.066 E-score.
The result for GCGCGGTA reads 0.108 E-score.
For AAACCTCG the value was -0.0813 E-score.
Consider AAAGGTGG, for which the binding signal was -0.184 E-score.
For GAGGACAC the value was 0.401 E-score.
For ACTTTTTC the value was -0.012 E-score; for AATGAAAC, -0.0654 E-score.
The result for CGGTACCC reads 0.103 E-score; that for CTGATTAA, -0.18 E-score; that for GGGAGAGA, -0.174 E-score.
On to TGATTCCA, for which the binding signal was 0.0627 E-score.
For GTGCTGAA the value was -0.0358 E-score; for CCGAACGG, 0.117 E-score.
For GGATGCCC the value was -0.0827 E-score; for AAGCGCAG, -0.199 E-score.
For AAAACTTC the value was -0.12 E-score.
As to ATGACGCG, the binding signal came to 0.0471 E-score.
Consider GTCTAGCA, for which the binding signal was -0.0411 E-score.
For ACCGAAGT the value was 0.167 E-score; for TGCGGGAA, -0.179 E-score; for AACTGTGG, 0.119 E-score.
With GCGATCCC, the binding signal came to 0.182 E-score.
The result for CACGAGGC reads 0.0535 E-score.
The result for TCGAAGCA reads -0.166 E-score; that for TTGGCAAA, -0.246 E-score.
For AGACCCCG the value was 0.281 E-score; for GGATCCTA, 0.147 E-score.
For the sequence AGCACTAG, the binding signal is -0.0435 E-score.
For AGGTTGGC the value was 0.0013 E-score; for AGGAATCC, 0.133 E-score.
For AACGGTAG, the binding signal amounted to 0.028 E-score.
Take CGTATATA: the binding signal is -0.034 E-score.
Take ATTCCTAC: the binding signal is -0.068 E-score.
The result for AGTCAGCC reads -0.152 E-score.
For GCCCAAGA, the binding signal is -0.105 E-score.
The result for CCCAGAGA reads -0.084 E-score; that for GATCTAGC, 0.0292 E-score; that for AAATGTCT, -0.316 E-score.
For AATATGAT the value was -0.177 E-score; for AATGACTG, -0.161 E-score; for CAGTCTCC, 0.00555 E-score.
The result for GATAACGA reads -0.0492 E-score.
As to CAAGCCAA, the binding signal is -0.0923 E-score.
For CAGTTCCC the value was -0.144 E-score.
For ACTACTCC, the binding signal worked out at 0.163 E-score.
With CATCATCG, the binding signal was -0.0887 E-score.
The result for AGACCATG reads -0.124 E-score.
For CTGAATTC, the binding signal is -0.0841 E-score.
For CGCTAACC the value was 0.0815 E-score; for AGAGTAGC, 0.0138 E-score; for AAGATCTG, -0.138 E-score.
With GTTTATTA, the binding signal was determined as 0.0798 E-score.
For CAGCCTAA the value was -0.2 E-score; for GTCAAGAC, 0.0799 E-score; for CTGCTTAA, -0.177 E-score.
The result for GGAAAAAC reads -0.0488 E-score.
Consider AATGAAGA, for which the binding signal is -0.172 E-score.
For AATTCCCC the value was -0.185 E-score; for CAGAGGCA, -0.085 E-score.
The result for GAGATGCC reads -0.271 E-score; that for AAGGAGCT, -0.028 E-score; that for ACGGACAT, -0.0259 E-score.
For CTGAATTA the value was -0.0832 E-score; for CGACGGCG, -0.0488 E-score; for ACTTGACA, 0.0805 E-score.
Turning to GTGATTGA, the binding signal is -0.0375 E-score.
On to ATGTGTGG, for which the binding signal was -0.116 E-score.
For CTGCCCTC the value was 0.0564 E-score; for AGGAGACT, -0.13 E-score; for ATGAGCTG, -0.0635 E-score.
The result for CGCAATGA reads 0.0288 E-score; that for CAAAGTGA, -0.0091 E-score.
As for ACATATAG, the binding signal is -0.0495 E-score.
The result for CTACCTAA reads -0.0501 E-score; that for TAGATCAA, -0.0713 E-score.
With CGGATCAA, the binding signal is 0.0498 E-score.
For CCGGAGGC the value was -0.104 E-score; for AAGTCGCT, -0.0363 E-score; for AGAGGCTA, -0.183 E-score.
The result for AGCTTTAA reads -0.0515 E-score; that for AGGACAGG, -0.153 E-score.
For CGCGTCAA the value was 0.00889 E-score; for CGTGAGTA, 0.0183 E-score.
For CAGAGGTC, the binding signal worked out at 0.038 E-score.
The result for GCATGAGA reads -0.248 E-score; that for TAGCTCGA, -0.047 E-score; that for AGTCACGC, 0.0482 E-score.
For AAAGAATC the value was -0.0801 E-score; for ACGTTCCG, -0.168 E-score; for GTCACATA, 0.138 E-score.
The result for GGGAGGCA reads -0.0888 E-score.
As for GTCCCTAA, the binding signal is -0.104 E-score.
Turning to AATCTTGA, the binding signal is -0.0555 E-score.
The result for TCGCGCGA reads -0.2 E-score.
Take AGTTCTAC: the binding signal is 0.0388 E-score.
The result for ACATGATA reads -0.0885 E-score; that for GTTATGTA, -0.148 E-score; that for GGGCGAGA, -0.145 E-score.
The result for ATCTTGGA reads 0.0163 E-score; that for CCCGAGAG, -0.00821 E-score.
On to AGCGACTG, for which the binding signal is -0.154 E-score.
Consider CGTTAACG, for which the binding signal was -0.0648 E-score.
ATATACCA: the binding signal was -0.0807 E-score.
For GTTTTTAA the value was -0.149 E-score.
The result for AAATGGAC reads -0.141 E-score; that for GGCGTGGA, 0.0477 E-score.
As to ATGCCCTC, the binding signal was -0.195 E-score.
For ACATTGCT the value was -0.0178 E-score; for AATCGCCT, -0.282 E-score; for GTAGCTCA, -0.0975 E-score.
Regarding TACCTCCA, the binding signal was -0.0368 E-score.
For CATTGCGA the value was -0.0661 E-score; for GTTGCTCA, -0.0294 E-score.
The result for GAGCCTCA reads -0.286 E-score; that for ATGTCACC, 0.0878 E-score; that for GCACCCAA, 0.154 E-score.
On to AGCAATTG, for which the binding signal is -0.194 E-score.
For AGCATGTG the value was -0.0787 E-score; for ACGAAGGG, 0.00825 E-score; for CCCGGTTC, 0.152 E-score.
For CGCGGTGA the value was -0.0315 E-score; for AACTTAGC, -0.189 E-score.
For GCGAGGTA the value was 0.0146 E-score; for CCCGACAC, 0.45 E-score; for TCAACCCA, -0.029 E-score.
On to CATCTCTA, for which the binding signal is -0.0868 E-score.
On to ACTTGCTC, for which the binding signal is -0.126 E-score.
The result for CAGCCATC reads -0.145 E-score; that for AGAACAAC, -0.115 E-score.
For ACAATCCC the value was -0.024 E-score.
The result for GTTCGTCA reads -0.183 E-score; that for CCATTTAC, 0.109 E-score.
Take CACTTAAA: the binding signal was -0.0477 E-score.
The result for AGCTGCGG reads -0.141 E-score.
With ACGCACAC, the binding signal was determined as 0.307 E-score.
On to CAAGCCGA, for which the binding signal is 0.139 E-score.
For ATGACTCA the value was -0.135 E-score; for AAGGCCCT, -0.244 E-score; for CTGGATAA, -0.117 E-score.
The result for TGAGCTCA reads -0.183 E-score; that for GTGACTGA, -0.059 E-score; that for AGGTTAAC, 0.0373 E-score.
In the case of ACTTAGCC, the binding signal stood at 0.0304 E-score.
CAATGGTA: the binding signal worked out at 0.00789 E-score.
For the sequence ACAATATG, the binding signal is 0.0623 E-score.
The result for GTTGGTCA reads -0.0833 E-score; that for AGCGATCA, -0.112 E-score.
For AATAGGCA the value was -0.22 E-score.
For ATGCGTGG the value was -0.0228 E-score; for ATGAGAAA, -0.35 E-score.
Take GAATTTAA: the binding signal is -0.291 E-score.
For GGTATTAA, the binding signal stood at 0.0495 E-score.
As for AACCAGCG, the binding signal is -0.168 E-score.
The result for CATCCGAC reads 0.129 E-score.
The result for AACCCGCG reads 0.229 E-score; that for CGTAGAAG, -0.136 E-score; that for AGATATGC, -0.128 E-score.
CACACCGG: the binding signal is 0.418 E-score.
